Measured values published in patent US20090082371A1, “Treatment of Viral Disease and Cancer With Nf-kappaB Inhibitors” (priority 2005, published 2009).

Assays:
[1] = system: retrovirus expressing GFP; details: 293T cells, tested dosages, two days after infection
Description: FIG. 1. Retroviruses expressing a marker protein, the green fluorescent protein (GFP), were prepared as described previously (Lu M. and Shenk T., J Virol. 1999; 73: 676-683). 293T human embryonic kidney cells were infected with the GFP-retrovirus. Some cells were pretreated with 6-Amino-4-(4-phenoxy)phenethylaminoquinazoline (Column A), 6-Amino-4-(4-n-pentyloxy)phenethylaminoquinazoline (Column B), 6-Amino-4-(4-n-hexyloxy)phenethylaminoquinazoline (Column C), 6-Amino-4-(4-n-butoxy)phenethylaminoquinazoline (Column D), 6-Amino-4-(4-benzyloxy)phenethylaminoquinazoline (Column E), 6-Amino-4-[4-(2-pyridylmethyloxy)phenethylaminoquinazoline (Column F), 4-(4-Allyloxy)phenethylamino-6-aminoquinazoline (Column G), or rocaglamide (Column H) for 30 mins before viral infection. Two days later, the cells were photographed with a digital camera mounted on a microscope. […] Data represent the mean±standard deviation of three independent experiments.
293T cells were pretreated with or without 6-Amino-4-(4-phenoxy)phenethylaminoquinazoline (1.5 μM) 30 mins before infection of retrovirus expressing GFP. Two days later, the number of infected cells from two separate experiments was counted.

cells listed in Table 1 = experiment: Cancer cell growth, panel of cells listed in Table 1; type: cell-based, human
Source text: The tested cells include LNCAP human prostate cancer cells, MDA-MB-468 human breast cancer cells, H1299 human lung cancer cells, AGS human gastric cancer cells, HepG2 human liver cancer cells, PANC-1 human pancreatic carcinoma cells, Jurkat human acute T-cell leukemia cells, A431 human epidermoid carcinoma cells, U251 human glioma cells, NBT-II human bladder cancer cells, and Hela human cervical cancer cells.

[2] = system: VSV-G-enveloped HIV-Luciferase viruses (HIV-1)

## 6-Amino-4-(4-n-butoxy)phenethylaminoquinazoline
[1]
  cell deaths observed: no obvious cell deaths
Cells listed in Table 1
  effects on cancer cell growth: comparable to treatment with 6-Amino-4-(4-phenoxy)phenethylaminoquinazoline
[2]
  cell deaths observed: no obvious cell deaths
  inhibition of HIV-1 viral infection and replication (HIV-1-induced Luciferase activity): showed inhibition

## 6-Amino-4-(4-n-hexyloxy)phenethylaminoquinazoline
[1]
  cell deaths observed: no obvious cell deaths
Cells listed in Table 1
  effects on cancer cell growth: comparable to treatment with 6-Amino-4-(4-phenoxy)phenethylaminoquinazoline
[2]
  cell deaths observed: no obvious cell deaths
  inhibition of HIV-1 viral infection and replication (HIV-1-induced Luciferase activity): showed inhibition

## CCCOc1ccc(CCNc2ncnc3ccc(N)cc23)cc1 [6-Amino-4-(4-propoxy)phenethylaminoquinazoline]
Cells listed in Table 1
  effects on cancer cell growth: comparable to treatment with 6-Amino-4-(4-phenoxy)phenethylaminoquinazoline

## C=CCOc1ccc(CCNc2ncnc3ccc(N)cc23)cc1
Cells listed in Table 1
  effects on cancer cell growth: comparable to treatment with 6-Amino-4-(4-phenoxy)phenethylaminoquinazoline

## CC(C)Oc1ccc(CCNc2ncnc3ccc(N)cc23)cc1 [6-Amino-4-(4-iso-propoxy)phenethylaminoquinazoline]
Cells listed in Table 1
  effects on cancer cell growth: comparable to treatment with 6-Amino-4-(4-phenoxy)phenethylaminoquinazoline

## 6-Amino-4-(4-n-pentyloxy)phenethylaminoquinazoline
[1]
  cell deaths observed: no obvious cell deaths
Cells listed in Table 1
  effects on cancer cell growth: comparable to treatment with 6-Amino-4-(4-phenoxy)phenethylaminoquinazoline
[2]
  cell deaths observed: no obvious cell deaths
  inhibition of HIV-1 viral infection and replication (HIV-1-induced Luciferase activity): showed inhibition

## Nc1ccc2ncnc(NCCc3ccc(OCc4ccccn4)cc3)c2c1
Cells listed in Table 1
  effects on cancer cell growth: comparable to treatment with 6-Amino-4-(4-phenoxy)phenethylaminoquinazoline

## C#CCOc1ccc(CCNc2ncnc3ccc(N)cc23)cc1 [6-Amino-4-(4-propargyloxy)phenethylaminoquinazoline]
Cells listed in Table 1
  effects on cancer cell growth: comparable to treatment with 6-Amino-4-(4-phenoxy)phenethylaminoquinazoline

## CCOc1ccc(CCNc2ncnc3ccc(N)cc23)cc1 [6-Amino-4-(4-ethoxy)phenethylaminoquinazoline]
Cells listed in Table 1
  effects on cancer cell growth: comparable to treatment with 6-Amino-4-(4-phenoxy)phenethylaminoquinazoline

## Nc1ccc2ncnc(NCCc3ccc(OCc4ccccc4)cc3)c2c1
Cells listed in Table 1
  effects on cancer cell growth: comparable to treatment with 6-Amino-4-(4-phenoxy)phenethylaminoquinazoline
